{"source": "the supplement of paper PMC8728848", "binders": {"B1": {"name": "SialidaseA (Arthrobacter ureafaciens) (protein)", "chain": "MRSNSTSAPSLVRRAATGVLTCAVSIGLLAGLGLPAQAAPTPPNSPTLPPGSFSETNLAADRTAANFFYRIPALTYLGNDVVLAAWDGRPGSAADAPNPNSIVQRRSTDGGKTWGPVQVIAAGHVADASGPRYGYSDPSYIYDAEANKVFAFFVYSKDQGFGGSQFGNDDADRNVISSAVIESSDAGVTWSQPRLITSVTKPGTSKTNPAAGDVRSNFASSGEGIQLKYGPHKGRLIQQYAGDVRQADGSNKIQAYSVYSDDHGVTWHKGANVGDRMDENKTVELSDGRVLLNSRDNANRGYRKVAVSTDGGATYGPVSQDTELPDPANNGAIARMFPNAAQGSADAKKLIFTNANSKTGRENVSARVSCDDGETWPGVRTIRSGFSAYSTVTRLADGKFGVLYEGNYTDNMPFATFDDAWLNYVCAPLAVPAVNIAPSATQEVPVTVTNQEATTLSGATATVYTPSGWSATTVPVPDVAPGASVTVTVALTAPADASGPRSLNAAFTTADGRVSQFTFTATTPVAPQVGLTITGSAPARDVAANPYQAGDVLGYTLNVKSTANVAANSVPLTGTFDSGFLPPAAPNCRYNNLAAGASYNCTTAKHTITAADMERGYFVPEATFSITSTTTPSLTKTVQFTGAAVALRDGLISADISGARTDVGRDLATRPYAAGELVPYAFTVKNTSPFVEQVVPTAGNFSPFLPAGAGNCRYLSLPAGQSYECATPRHAVTAEEVEQGFFVPDTTWEVSAAGQSTRTYRINGGEVDLLVRDAALSATVVAEWKDADGDRFASAGDPVTFTYTVGNAGNVALTGLEAPDAGISLPFLAPGDTATATREHVLTAADVAGGSLAASAFEATARNGSKEVTATAEGQPLELKVQPAQPSKEPELTVQDLEDQTPPFDLGTAFKYRTGQKVSLAGLEYGQWYYVYLNKTGYRLGWMFPTTGDTVEFILPPEVRNGRDDVVVLDKDGRRVSFDRLQVTPKGEKI"}}, "test_in_all_cases": "glycan array binding signal (z-score within array); higher = stronger binding", "conditions_in_all_cases": "glycan notation: IUPAC condensed, linker removed", "key": {"[1]": {"molecular_target": "Gal(b1-3)GlcNAc(b1-2)Man(a1-3)[Gal(b1-3)GlcNAc(b1-2)Man(a1-6)]Man(b1-4)GlcNAc(b1-4)[Fuc(a1-6)]GlcNAc", "how_it_was_run": "(§1)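 Glycan array data came from 3228 arrays in the Consortium for Functional Glycomics database, and only arrays with an available protein sequence were kept. Glycan names were put into IUPAC-condensed notation, and columns mapping to the same glycan were averaged. The binding signal is a within-array Z-score, averaged across arrays of one protein sequence run at different concentrations or buffers and across linkers. A negative Z-score can be read as non-binding.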"}, "[2]": {"molecular_target": "Gal(b1-3)GlcNAc(b1-2)Man(a1-3)[GlcNAc(b1-4)][Gal(b1-3)GlcNAc(b1-2)Man(a1-6)]Man(b1-4)GlcNAc(b1-4)GlcNAc", "how_it_was_run": "as §1"}, "[3]": {"molecular_target": "Gal(b1-3)GlcNAc(b1-2)[Gal(b1-3)GlcNAc(b1-6)]Man(a1-6)[Gal(b1-3)GlcNAc(b1-2)Man(a1-3)]Man(b1-4)GlcNAc(b1-4)GlcNAc", "how_it_was_run": "as §1"}, "[4]": {"molecular_target": "Gal(b1-3)GlcNAc(b1-3)Gal(b1-3)GlcNAc", "how_it_was_run": "as §1"}, "[5]": {"molecular_target": "Gal(b1-3)GlcNAc(b1-3)Gal(b1-4)Glc", "how_it_was_run": "as §1"}, "[6]": {"molecular_target": "Gal(b1-3)GlcNAc(b1-3)Gal(b1-4)GlcNAc", "how_it_was_run": "as §1"}, "[7]": {"molecular_target": "Gal(b1-3)GlcNAc(b1-3)Gal(b1-4)GlcNAc(b1-2)Man(a1-3)[Gal(b1-3)GlcNAc(b1-3)Gal(b1-4)GlcNAc(b1-2)Man(a1-6)]Man(b1-4)GlcNAc(b1-4)GlcNAc", "how_it_was_run": "as §1"}, "[8]": {"molecular_target": "Gal(b1-3)GlcNAc(b1-3)Gal(b1-4)GlcNAc(b1-2)[Gal(b1-3)GlcNAc(b1-3)Gal(b1-4)GlcNAc(b1-6)]Man(a1-6)[Gal(b1-3)GlcNAc(b1-3)Gal(b1-4)GlcNAc(b1-2)Man(a1-3)]Man(b1-4)GlcNAc(b1-4)[Fuc(a1-6)]GlcNAc", "how_it_was_run": "as §1"}, "[9]": {"molecular_target": "Gal(b1-3)GlcNAc(b1-3)Gal(b1-4)GlcNAc(b1-3)Gal(b1-4)GlcNAc(b1-2)[Gal(b1-3)GlcNAc(b1-3)Gal(b1-4)GlcNAc(b1-3)Gal(b1-4)GlcNAc(b1-6)]Man(a1-6)[Gal(b1-3)GlcNAc(b1-3)Gal(b1-4)GlcNAc(b1-3)Gal(b1-4)GlcNAc(b1-2)Man(a1-3)]Man(b1-4)GlcNAc(b1-4)[Fuc(a1-6)]GlcNAc", "how_it_was_run": "as §1"}, "[10]": {"molecular_target": "Gal(b1-3)GlcNAc(b1-3)Gal(b1-4)GlcNAc(b1-6)[Gal(b1-3)GlcNAc(b1-3)]Gal(b1-4)Glc", "how_it_was_run": "as §1"}, "[11]": {"molecular_target": "Gal(b1-3)GlcNAc(b1-3)Gal(b1-4)[Fuc(a1-3)]GlcNAc", "how_it_was_run": "as §1"}, "[12]": {"molecular_target": "Gal(b1-3)GlcNAc(b1-3)Gal(b1-4)[Fuc(a1-3)]GlcNAc(b1-6)[Gal(b1-3)GlcNAc(b1-3)]Gal(b1-4)Glc", "how_it_was_run": "as §1"}, "[13]": {"molecular_target": "Gal(b1-3)GlcNAc(b1-3)GalNAc", "how_it_was_run": "as §1"}, "[14]": {"molecular_target": "Gal(b1-3)GlcNAc(b1-6)Gal(b1-4)GlcNAc", "how_it_was_run": "as §1"}, "[15]": {"molecular_target": "Gal(b1-3)GlcNAc(b1-6)GalNAc", "how_it_was_run": "as §1"}, "[16]": {"molecular_target": "Gal(b1-3)GlcNAc(b1-6)[Gal(b1-3)]GalNAc", "how_it_was_run": "as §1"}, "Gal(b1-3)GlcNAc6S": {"molecular_target": "Gal(b1-3)GlcNAc6S", "how_it_was_run": "as §1"}, "[17]": {"molecular_target": "Gal(b1-3)[Fuc(a1-4)]GlcNAc", "how_it_was_run": "as §1"}, "[18]": {"molecular_target": "Gal(b1-3)[Fuc(a1-4)]GlcNAc(b1-2)Man", "how_it_was_run": "as §1"}, "[19]": {"molecular_target": "Gal(b1-3)[Fuc(a1-4)]GlcNAc(b1-2)Man(a1-3)[Gal(b1-3)[Fuc(a1-4)]GlcNAc(b1-2)Man(a1-6)]Man(b1-4)GlcNAc(b1-4)[Fuc(a1-6)]GlcNAc", "how_it_was_run": "as §1"}, "[20]": {"molecular_target": "Gal(b1-3)[Fuc(a1-4)]GlcNAc(b1-3)Gal(b1-3)[Fuc(a1-4)]GlcNAc", "how_it_was_run": "as §1"}, "[21]": {"molecular_target": "Gal(b1-3)[Fuc(a1-4)]GlcNAc(b1-3)Gal(b1-4)[Fuc(a1-3)]GlcNAc", "how_it_was_run": "as §1"}, "[22]": {"molecular_target": "Gal(b1-3)[Fuc(a1-4)]GlcNAc(b1-6)GalNAc", "how_it_was_run": "as §1"}, "[23]": {"molecular_target": "Gal(b1-3)[GlcNAc(b1-6)]GalNAc", "how_it_was_run": "as §1"}, "[24]": {"molecular_target": "Gal(b1-3)[Neu5Ac(a2-6)]GalNAc", "how_it_was_run": "as §1"}, "[25]": {"molecular_target": "Gal(b1-3)[Neu5Ac(a2-6)]GlcNAc(b1-4)Gal(b1-4)Glc", "how_it_was_run": "as §1"}, "[26]": {"molecular_target": "Gal(b1-3)[Neu5Ac(b2-6)]GalNAc", "how_it_was_run": "as §1"}, "Gal(b1-4)Gal": {"molecular_target": "Gal(b1-4)Gal", "how_it_was_run": "as §1"}, "[27]": {"molecular_target": "Gal(b1-4)GalNAc(a1-3)[Fuc(a1-2)]Gal(b1-4)GlcNAc", "how_it_was_run": "as §1"}, "[28]": {"molecular_target": "Gal(b1-4)GalNAc(b1-3)[Fuc(a1-2)]Gal(b1-4)GlcNAc", "how_it_was_run": "as §1"}}, "note": "The list shows a part of the results.", "data": [{"binder": "B1", "values": [{"measurement": "glycan array binding signal (z-score)", "setting": "[1]", "result": 0.029}, {"measurement": "glycan array binding signal (z-score)", "setting": "[2]", "result": -0.31}, {"measurement": "glycan array binding signal (z-score)", "setting": "[3]", "result": -0.146}, {"measurement": "glycan array binding signal (z-score)", "setting": "[4]", "result": -0.696}, {"measurement": "glycan array binding signal (z-score)", "setting": "[5]", "result": -0.55}, {"measurement": "glycan array binding signal (z-score)", "setting": "[6]", "result": -0.792}, {"measurement": "glycan array binding signal (z-score)", "setting": "[7]", "result": -0.647}, {"measurement": "glycan array binding signal (z-score)", "setting": "[8]", "result": 0.572}, {"measurement": "glycan array binding signal (z-score)", "setting": "[9]", "result": 0.18}, {"measurement": "glycan array binding signal (z-score)", "setting": "[10]", "result": -0.464}, {"measurement": "glycan array binding signal (z-score)", "setting": "[11]", "result": -0.406}, {"measurement": "glycan array binding signal (z-score)", "setting": "[12]", "result": -0.842}, {"measurement": "glycan array binding signal (z-score)", "setting": "[13]", "result": -0.646}, {"measurement": "glycan array binding signal (z-score)", "setting": "[14]", "result": -0.241}, {"measurement": "glycan array binding signal (z-score)", "setting": "[15]", "result": -0.678}, {"measurement": "glycan array binding signal (z-score)", "setting": "[16]", "result": -0.717}, {"measurement": "glycan array binding signal (z-score)", "setting": "Gal(b1-3)GlcNAc6S", "result": -0.625}, {"measurement": "glycan array binding signal (z-score)", "setting": "[17]", "result": -0.613}, {"measurement": "glycan array binding signal (z-score)", "setting": "[18]", "result": -0.159}, {"measurement": "glycan array binding signal (z-score)", "setting": "[19]", "result": -0.438}, {"measurement": "glycan array binding signal (z-score)", "setting": "[20]", "result": -0.635}, {"measurement": "glycan array binding signal (z-score)", "setting": "[21]", "result": -0.741}, {"measurement": "glycan array binding signal (z-score)", "setting": "[22]", "result": -0.258}, {"measurement": "glycan array binding signal (z-score)", "setting": "[23]", "result": -0.567}, {"measurement": "glycan array binding signal (z-score)", "setting": "[24]", "result": 1.34}, {"measurement": "glycan array binding signal (z-score)", "setting": "[25]", "result": 2.48}, {"measurement": "glycan array binding signal (z-score)", "setting": "[26]", "result": 2.4}, {"measurement": "glycan array binding signal (z-score)", "setting": "Gal(b1-4)Gal", "result": -0.692}, {"measurement": "glycan array binding signal (z-score)", "setting": "[27]", "result": -0.867}, {"measurement": "glycan array binding signal (z-score)", "setting": "[28]", "result": -0.546}]}]}
